# Results from PubChem BioAssay AID686978 (National Center for Advancing Translational Sciences (NCATS), 2013).
# “And” between values parts separate entries of the source, which are not always exact repeats. Equal values may be shown once. Screen size: about 420,000 compounds; about 64,000 (15%) were called active. Inconclusive means that the source gave no clear call. Such entries were picked first, then a sample of the others. Calls follow the shape of the dose curve; as a rule, active = well fitted inhibition curve with a large enough effect; inconclusive = small, poorly fitted or top-dose-only effect; inactive = flat fitted curve, though single readings scatter. Potencies beside an inconclusive call are fits to weak or partial responses and may not hold up.
# Assay: qHTS for Inhibitors of human tyrosyl-DNA phosphodiesterase 1 (TDP1): qHTS in cells in absence of CPT; also: nearly all actives have a fitted effect of over 55% in size
# Details: DT40 Tdp1-/- hTDP1 cells, no CPT, ATP luminescence, 48 h; activity change, negative = growth inhibition: at 46.2 µM (top of the series) unless noted
# Procedure, shortened: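 DT40 Tdp1-/-;hTDP1 cells, no CPT (DMSO vehicle only), 400 cells/well; compounds pin-transferred; ≥48 hr, 37 °C; CellTiter-Glo 30 min RT dark, luminescence read.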
# % is scaled to controls: 0 for no effect and ±100 for the full control effect; potency is read from the fitted curve at half-maximal effect; tags tell the direction and shape of the fitted curve.
SMILES,Potency,"activity change, negative = growth inhibition"
O=c1c2ccccc2c2c(O)nc(-c3ccccc3)n2n1Cc1ccccc1,inactive,–
Cc1ccc(N/N=C2\CS(=O)(=O)N(C)c3ccsc32)cc1,"inconclusive: 20.6 µM [inhibitor, single point]",–
Cc1ccc(OC(C)C(=O)Nc2ccc(S(=O)(=O)Nc3cc(C)on3)cc2)cc1 (centres undefined),inactive,–
O=C(c1ccc(S(=O)(=O)N2CCC(c3nc4ccccc4s3)CC2)cc1)N1CCCCC1,inactive,–
COCc1cc(C)n(CC(=O)NCC2CCCO2)c(=O)c1C#N (centres undefined),inactive,–
COc1cc2nc(N3CCCN(C)CC3)nc(Nc3ccncc3)c2cc1OC,active: 7.94 µM,–
CCc1c(C)sc2c1CCN(C(=O)Nc1ccccc1C(F)(F)F)C2c1ccccc1 (centres undefined),active: 7.31 µM,–
O=C(NCc1ccc(F)cc1)C(=O)Nc1nc(C23CC4CC(CC(C4)C2)C3)cs1,"inconclusive: 23.1 µM [inhibitor, single point]",–
COc1cc(C#Cc2c(-c3cncn3C)n(C)c3ccc(-c4ccc5[nH]ccc5c4)cc23)cc(OC)c1,"inconclusive: 23.1 µM [inhibitor, single point]",–
COc1cccc(S(=O)(=O)N(C)C[C@H]2OCc3cnnn3CCCC(=O)N([C@@H](C)CO)C[C@H]2C)c1,inactive,–
COc1ccc(C(=O)Nc2cc(C)nc3ccccc23)cc1OC,"inconclusive: 29.1 µM [inhibitor, single point]",–
NC(=O)NC(=O)CSc1nnc(-c2ccc(Cl)cc2)n1CC1CCCO1 (centres undefined),"inconclusive: 6.51 µM [inhibitor, single point]",–
Cc1cccc(Nc2nc(N)c([N+](=O)[O-])c(NCc3ccco3)n2)c1,"inconclusive: 16.4 µM [inhibitor, partial curve]",–
CCN1CCN(Cc2cc(=O)oc3cc4c(cc23)CCC4)CC1,inactive,–
COC(=O)/C=C/c1ccccc1S(=O)(=O)NC(C)C,–,inconclusive: -30.6% [inhibitor]
Cc1cccc(NC(=O)C2(C)CC3c4ccccc4C2c2ccccc23)c1C (centres undefined),"inconclusive: 18.4 µM [inhibitor, single point]",–
CSCCC1NC(=O)N(CC(=O)N2CCc3ccccc3C2)C1=O (centres undefined),inactive,–
COc1cccc(C2CCCCN2Cc2nc(-c3ccc(C)o3)oc2C)c1 (centres undefined),"inconclusive: 16.4 µM [inhibitor, single point]",–
CCn1c(C(=O)N2CCCC(C(=O)NCCCOC)C2)cc2sccc21 (centres undefined),"inconclusive: 29.1 µM [inhibitor, single point]",–
Cc1ccc(-c2n[nH]c(=S)n2/N=C/c2ccc(C)o2)cc1,"inconclusive: 18.4 µM [inhibitor, single point]",–
CCOC(=O)NC1CCc2cc(OC)c(OC)c(OC)c2-c2ccc(SC)c(=O)cc21 (centres undefined),active: 0.0164 µM,–
O=C1N(Cc2cccnc2)C[C@@H]2C[C@@H](c3cccc(OCc4ccccc4)c3)N3CCC[C@@]123,"inconclusive: 29.1 µM [inhibitor, single point]",–

SMILES,Potency,"activity change, negative = growth inhibition"
O=C(NCC1CCCO1)c1cc2c(=O)[nH]c3ccccc3c2s1 (centres undefined),inactive,–
COc1ccc(NC(=O)CNC(c2ccccc2)c2ccccc2)cc1Cl,"inconclusive: 29.1 µM [inhibitor, single point]",–
O=C(NCc1ccccc1Cl)C(=O)c1cn(CC(=O)N2CCOCC2)c2ccccc12,"inconclusive: 14.6 µM [inhibitor, partial curve, poor fit]",–
Cc1cc(C)n(Cc2ccc(F)cc2)c(=O)c1C#N,inactive,–
O=C(NC(c1ccc(-c2ccccc2)cc1)c1cnccn1)C1CCN(Cc2ccc(Cl)c(Cl)c2)CC1 (centres undefined),"inconclusive: 18.4 µM [inhibitor, single point]",–
CCOc1ccc(NC(=O)c2sc3nc4c(cc3c2N)CCCCCC4)cc1,"inconclusive: 23.1 µM [inhibitor, single point]",–
O=c1cc(CN2CCN(c3ccccc3F)CC2)c2ccccc2o1,"inconclusive: 29.1 µM [inhibitor, single point]",–
O=[N+]([O-])c1c(-c2cn[nH]c2)n[nH]c1-c1cn[nH]c1,"inconclusive: 7.31 µM [inhibitor, partial curve, poor fit]",–
CCOc1ccc2c(c1)-c1c(ssc1=S)C(C)(C)N2C(=O)c1ccco1,active: 2.91 µM,–
COc1cccc(C(=O)Nc2cc(-c3cn4cccnc4n3)ccc2C)c1OC,active: 16.4 µM,–
O=c1[nH]c(/C(=N\O)c2ccccc2)no1,active: 14.6 µM,–
Cc1csc(NC(=O)COCC(=O)O)c1-c1nc2ccccc2s1,inactive,–
Cc1ccccc1Cn1nc(C)c(NC(=O)c2noc3c2CC(C(C)(C)C)CC3)c1C (centres undefined),"inconclusive: 29.1 µM [inhibitor, single point]",–
CC(C)(C)OC(=O)N/N=C\c1ccc(OC(=O)c2ccco2)cc1,"inconclusive: 25.9 µM [inhibitor, single point]",–
Cc1ccc(C(=O)NC(NC(=O)c2ccc(C)cc2)C(Cl)Cl)cc1,"inconclusive: 18.4 µM [inhibitor, single point]",–
Cc1cccc(-n2ncc3c2CCCC3NC(=O)Cc2c(C)noc2C)c1C (centres undefined),"inconclusive: 8.2 µM [inhibitor, partial curve]",–
COC(=O)c1ccc(/C=N/N2C(C)CCCC2C)cc1 (centres undefined),"inconclusive: 23.1 µM [inhibitor, partial curve]",–
CCNC(=O)C(=O)N/N=C/c1cc([N+](=O)[O-])ccc1O,"inconclusive: 20.6 µM [inhibitor, single point]",–
CC(C)Cn1c(N)c(C(=O)COC(=O)c2cccnc2Cl)c(=O)n(C)c1=O,active: 10.3 µM,–
O=C(COC(=O)c1cc(=O)[nH]c2ccccc12)c1cccs1,inactive,–
O=C1Cc2c([nH]c3ccc(Br)cc23)-c2ccccc2N1,"inconclusive: 23.7 µM [inhibitor, partial curve, poor fit] and inconclusive: 29.1 µM [inhibitor, single point]",–
CC(C)=CC(=O)O[C@@H]1Cc2cc3ccc(=O)oc3cc2OC1(C)C,"inconclusive: 23.1 µM [inhibitor, single point]",–
